# Measurements from the supplement of paper PMC8728848.
# The list shows a part of the results.
# B1: PX14375l-pdi-526-25-526 (Parabacteroides distasonis) (protein)
# chain: DEEPKSTLTDVAYYKTQSQMESNVNYLYRTGAIGSYVDFGSAYIGPFASIQEELTGYFSNSYEGQEIVCRYTRELTRQQNTMQLASKMDKVWDDCYRGINVANGAIKHMPEVPMDQATADRLTAEAKFFRAFNYFYLVKTFGAVPFYTDPYELAENMELPRTETSTIYNQIESDLKDAMNVLPEATFAANGHRITKYVAAMTLTDVYMYQHKYAEAAETVRIVVNSNHKLTTNDDLAMNSAFNKLRSTDDLDEAIYAYEYDNQISPSNWLPTYAFDGDASSNGLFGTYAITQKVHGPNDRYLNIYESNDLRRQPNQFYHWTYTNPKTGKVWNSVGNAACCWYYYDEDALLTTGRGTKDWNVYRYAEALLDAAESIAQSTGVTAEAAGYLAQVKARANMEGKTAAEIASSLQSMGKQAFIEECWTERLRELPLEFKMWDMCVRTGMFPNISETTPGQVTYIPLVGAKNASGATIKESDLLWPLSVNEIQRNPSLTQNEGYSAK
# What was measured:
# Assay in all cases: glycan array binding signal (z-score within array); higher = stronger binding
# Conditions in all cases: glycan notation: IUPAC condensed, linker removed
# Gal6S(b1-4)Glc6S = target: Gal6S(b1-4)Glc6S
# Procedure, shortened: (§1)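 Columns mapping to the same glycan were averaged after glycan names were converted to IUPAC-condensed notation. The data come from 3228 arrays in the Consortium for Functional Glycomics database, limited to those with an available protein sequence. Binding is reported as a within-array Z-score averaged across arrays of one protein sequence and across linkers.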
# Gal6S(b1-4)GlcNAc = target: Gal6S(b1-4)GlcNAc
# Procedure, shortened: as §1
# Gal6S(b1-4)GlcNAc6S = target: Gal6S(b1-4)GlcNAc6S
# Procedure, shortened: as §1
# GalNAc(a1-3)Gal = target: GalNAc(a1-3)Gal
# Procedure, shortened: as §1
# GalNAc(a1-3)GalNAc = target: GalNAc(a1-3)GalNAc
# Procedure, shortened: as §1
# [1] = target: GalNAc(a1-3)GalNAc(b1-3)Gal(a1-4)Gal(b1-4)Glc
# Procedure, shortened: as §1
# [2] = target: GalNAc(a1-3)GalNAc(b1-3)Gal(a1-4)Gal(b1-4)GlcNAc
# Procedure, shortened: as §1
# GalNAc(b1-3)Gal = target: GalNAc(b1-3)Gal
# Procedure, shortened: as §1
# [3] = target: GalNAc(b1-3)Gal(a1-4)Gal(b1-4)GlcNAc
# Procedure, shortened: as §1
# [4] = target: GalNAc(b1-3)Gal(a1-4)Gal(b1-4)GlcNAc(b1-3)Gal(b1-4)Glc
# Procedure, shortened: as §1
# [5] = target: GalNAc(b1-3)Gal(a1-6)Gal(b1-4)Glc
# Procedure, shortened: as §1
# GalNAc(b1-3)GalNAc = target: GalNAc(b1-3)GalNAc
# Procedure, shortened: as §1
# GalNAc(b1-3)GlcNAc = target: GalNAc(b1-3)GlcNAc
# Procedure, shortened: as §1
# GalNAc(b1-4)Gal(b1-4)Glc = target: GalNAc(b1-4)Gal(b1-4)Glc
# Procedure, shortened: as §1
# GalNAc(b1-4)GlcNAc = target: GalNAc(b1-4)GlcNAc
# Procedure, shortened: as §1
# [6] = target: GalNAc(b1-4)GlcNAc(b1-2)Man
# Procedure, shortened: as §1
# [7] = target: GalNAc(b1-4)GlcNAc(b1-2)Man(a1-3)[GalNAc(b1-4)GlcNAc(b1-2)Man(a1-6)]Man(b1-4)GlcNAc(b1-4)GlcNAc
# Procedure, shortened: as §1
# [8] = target: GalNAc(b1-4)GlcNAc(b1-3)GalNAc(b1-4)GlcNAc
# Procedure, shortened: as §1
# GalNAc(b1-4)GlcNAc6S = target: GalNAc(b1-4)GlcNAc6S
# Procedure, shortened: as §1
# GalNAc(b1-6)GalNAc = target: GalNAc(b1-6)GalNAc
# Procedure, shortened: as §1
# GalNAc3S(b1-4)GlcNAc = target: GalNAc3S(b1-4)GlcNAc
# Procedure, shortened: as §1
# GalNAc3S(b1-4)GlcNAc3S = target: GalNAc3S(b1-4)GlcNAc3S
# Procedure, shortened: as §1
# [9] = target: GalNAc3S(b1-4)[Fuc(a1-3)]GlcNAc
# Procedure, shortened: as §1
# GalNAc4S6S(b1-4)GlcNAc = target: GalNAc4S6S(b1-4)GlcNAc
# Procedure, shortened: as §1
# GalNAc6S(b1-4)GlcNAc = target: GalNAc6S(b1-4)GlcNAc
# Procedure, shortened: as §1
# Glc(a1-4)Glc = target: Glc(a1-4)Glc
# Procedure, shortened: as §1
# [10] = target: Glc(a1-4)Glc(a1-4)Glc(a1-4)Glc
# Procedure, shortened: as §1
# Glc(a1-6)Glc(a1-6)Glc = target: Glc(a1-6)Glc(a1-6)Glc
# Procedure, shortened: as §1
# [11] = target: Glc(a1-6)Glc(a1-6)Glc(a1-6)Glc
# Procedure, shortened: as §1
# Glc(b1-4)Glc = target: Glc(b1-4)Glc
# Procedure, shortened: as §1
# Glc(b1-6)Glc = target: Glc(b1-6)Glc
# Procedure, shortened: as §1
# GlcA(b1-3)Gal = target: GlcA(b1-3)Gal
# Procedure, shortened: as §1
# GlcA(b1-3)GlcNAc = target: GlcA(b1-3)GlcNAc
# Procedure, shortened: as §1
# GlcA(b1-6)Gal = target: GlcA(b1-6)Gal
# Procedure, shortened: as §1
# [12] = target: GlcA3S(b1-3)Gal(b1-4)GlcNAc(b1-2)Man
# Procedure, shortened: as §1
# [13] = target: GlcA3S(b1-3)Gal(b1-4)GlcNAc(b1-3)Gal(b1-4)Glc
# Procedure, shortened: as §1
# [14] = target: GlcNAc(a1-3)Gal(b1-4)GlcNAc
# Procedure, shortened: as §1
binder,measurement,setting,value
B1,glycan array binding signal (z-score),Gal6S(b1-4)Glc6S,-0.213
same,glycan array binding signal (z-score),Gal6S(b1-4)GlcNAc,-0.026
same,glycan array binding signal (z-score),Gal6S(b1-4)GlcNAc6S,0.054
same,glycan array binding signal (z-score),GalNAc(a1-3)Gal,0.039
same,glycan array binding signal (z-score),GalNAc(a1-3)GalNAc,-0.431
same,glycan array binding signal (z-score),[1],-0.057
same,glycan array binding signal (z-score),[2],-0.248
same,glycan array binding signal (z-score),GalNAc(b1-3)Gal,-0.03
same,glycan array binding signal (z-score),[3],-0.17
same,glycan array binding signal (z-score),[4],-0.043
same,glycan array binding signal (z-score),[5],-0.016
same,glycan array binding signal (z-score),GalNAc(b1-3)GalNAc,0.156
same,glycan array binding signal (z-score),GalNAc(b1-3)GlcNAc,-0.388
same,glycan array binding signal (z-score),GalNAc(b1-4)Gal(b1-4)Glc,-0.159
same,glycan array binding signal (z-score),GalNAc(b1-4)GlcNAc,0.06
same,glycan array binding signal (z-score),[6],-0.183
same,glycan array binding signal (z-score),[7],-0.068
same,glycan array binding signal (z-score),[8],-0.222
same,glycan array binding signal (z-score),GalNAc(b1-4)GlcNAc6S,-0.255
same,glycan array binding signal (z-score),GalNAc(b1-6)GalNAc,-0.108
same,glycan array binding signal (z-score),GalNAc3S(b1-4)GlcNAc,-0.071
same,glycan array binding signal (z-score),GalNAc3S(b1-4)GlcNAc3S,-0.263
same,glycan array binding signal (z-score),[9],-0.273
same,glycan array binding signal (z-score),GalNAc4S6S(b1-4)GlcNAc,-0.138
same,glycan array binding signal (z-score),GalNAc6S(b1-4)GlcNAc,-0.256
same,glycan array binding signal (z-score),Glc(a1-4)Glc,-0.264
same,glycan array binding signal (z-score),[10],-0.319
same,glycan array binding signal (z-score),Glc(a1-6)Glc(a1-6)Glc,-0.259
same,glycan array binding signal (z-score),[11],-0.058
same,glycan array binding signal (z-score),Glc(b1-4)Glc,-0.069
same,glycan array binding signal (z-score),Glc(b1-6)Glc,-0.224
same,glycan array binding signal (z-score),GlcA(b1-3)Gal,-0.252
same,glycan array binding signal (z-score),GlcA(b1-3)GlcNAc,-0.199
same,glycan array binding signal (z-score),GlcA(b1-6)Gal,-0.409
same,glycan array binding signal (z-score),[12],0.055
same,glycan array binding signal (z-score),[13],-0.146
same,glycan array binding signal (z-score),[14],-0.379
